# The supplement of paper PMC8728848
# This is one part of the list.
# How the values were obtained:
# Assay in all cases: glycan array binding signal (z-score within array); higher = stronger binding
# Conditions in all cases: glycan notation: IUPAC condensed, linker removed
# [1] = biological target: GlcNAc(b1-3)Gal(b1-4)GlcNAc(b1-3)Gal(b1-4)GlcNAc(b1-3)GalNAc
# Outline: (§1)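 Negative Z-scores can be read as non-binding. The Z-score is calculated within each array and then averaged across arrays of one protein sequence at different concentrations or buffers and across linkers. Arrays, 3228 in all, were curated from the Consortium for Functional Glycomics database and kept only where the protein sequence was available.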
# [2] = biological target: GlcNAc(b1-3)Gal(b1-4)GlcNAc(b1-3)GalNAc
# Outline: as §1
# [3] = biological target: GlcNAc(b1-3)Gal(b1-4)GlcNAc(b1-3)[GlcNAc(b1-3)Gal(b1-4)GlcNAc(b1-3)]GalNAc
# Outline: as §1
# [4] = biological target: GlcNAc(b1-3)Gal(b1-4)GlcNAc(b1-6)[Gal(b1-3)]GalNAc
# Outline: as §1
# [5] = biological target: GlcNAc(b1-3)Gal(b1-4)GlcNAc(b1-6)[GlcNAc(b1-3)Gal(b1-3)]GalNAc
# Outline: as §1
# [6] = biological target: GlcNAc(b1-3)Gal(b1-4)GlcNAc(b1-6)[GlcNAc(b1-3)]Gal(b1-4)GlcNAc
# Outline: as §1
# [7] = biological target: GlcNAc(b1-3)GalNAc
# Outline: as §1
# [8] = biological target: GlcNAc(b1-3)Man
# Outline: as §1
# [9] = biological target: GlcNAc(b1-3)[GlcNAc(b1-4)][GlcNAc(b1-6)]GlcNAc
# Outline: as §1
# [10] = biological target: GlcNAc(b1-3)[GlcNAc(b1-6)]Gal(b1-4)GlcNAc
# Outline: as §1
# [11] = biological target: GlcNAc(b1-3)[GlcNAc(b1-6)]GalNAc
# Outline: as §1
# [12] = biological target: GlcNAc(b1-4)Gal(b1-4)GlcNAc
# Outline: as §1
# [13] = biological target: GlcNAc(b1-4)GlcNAc
# Outline: as §1
# [14] = biological target: GlcNAc(b1-4)GlcNAc(b1-4)GlcNAc
# Outline: as §1
# [15] = biological target: GlcNAc(b1-4)GlcNAc(b1-4)GlcNAc(b1-4)GlcNAc(b1-4)GlcNAc
# Outline: as §1
# [16] = biological target: GlcNAc(b1-4)GlcNAc(b1-4)GlcNAc(b1-4)GlcNAc(b1-4)GlcNAc(b1-4)GlcNAc
# Outline: as §1
# [17] = biological target: GlcNAc(b1-4)[GlcNAc(b1-6)]GalNAc
# Outline: as §1
# [18] = biological target: GlcNAc(b1-6)Gal(b1-4)GlcNAc
# Outline: as §1
# [19] = biological target: GlcNAc(b1-6)GalNAc
# Outline: as §1
# [20] = biological target: GlcNAc6S(b1-3)Gal(b1-4)GlcNAc
# Outline: as §1
# [21] = biological target: Kdn(a2-3)Gal(b1-3)GalNAc
# Outline: as §1
# [22] = biological target: Kdn(a2-3)Gal(b1-3)GlcNAc
# Outline: as §1
# [23] = biological target: Kdn(a2-3)Gal(b1-4)Glc
# Outline: as §1
# [24] = biological target: Kdn(a2-3)Gal(b1-4)GlcNAc
# Outline: as §1
# [25] = biological target: Kdn(a2-3)Gal(b1-4)[Fuc(a1-3)]GlcNAc
# Outline: as §1
# [26] = biological target: Kdn(a2-6)Gal(b1-4)GlcNAc
# Outline: as §1
# [27] = biological target: Man(a1-2)Man(a1-2)Man(a1-3)Man
# Outline: as §1
# [28] = biological target: Man(a1-2)Man(a1-2)Man(a1-6)[Man(a1-3)]Man
# Outline: as §1
# [29] = biological target: Man(a1-2)Man(a1-3)Man
# Outline: as §1
# [30] = biological target: Man(a1-2)Man(a1-3)[Man(a1-2)Man(a1-6)]Man
# Outline: as §1
# [31] = biological target: Man(a1-2)Man(a1-3)[Man(a1-2)Man(a1-6)]Man(a1-6)[Man(a1-2)Man(a1-2)Man(a1-3)]Man
# Outline: as §1
# [32] = biological target: Man(a1-2)Man(a1-3)[Man(a1-2)Man(a1-6)]Man(a1-6)[Man(a1-2)Man(a1-2)Man(a1-3)]Man(b1-4)GlcNAc(b1-4)GlcNAc
# Outline: as §1
# [33] = biological target: Man(a1-2)Man(a1-3)[Man(a1-6)]Man(a1-6)[Man(a1-2)Man(a1-3)]Man(b1-4)GlcNAc(b1-4)GlcNAc
# Outline: as §1
# [34] = biological target: Man(a1-2)Man(a1-6)[Man(a1-3)]Man(a1-6)[Man(a1-2)Man(a1-2)Man(a1-3)]Man
# Outline: as §1
# [35] = biological target: Man(a1-2)Man(a1-6)[Man(a1-3)]Man(a1-6)[Man(a1-2)Man(a1-2)Man(a1-3)]Man(b1-4)GlcNAc(b1-4)GlcNAc
# Outline: as §1
# [36] = biological target: Man(a1-3)[Man(a1-6)]Man
# Outline: as §1
# [37] = biological target: Man(a1-3)[Man(a1-6)]Man(a1-6)[Man(a1-2)Man(a1-3)]Man(b1-4)GlcNAc(b1-4)GlcNAc
# Outline: as §1
binder,measurement,setting,value
PX9961X-pdi-531-24-531 (Parabacteroides distasonis) (protein) DLTEEIHSSVIAENYYNNAGEVMAAMMRPWGHFCGTMQVAQSPWSCNELSSDCAAWPQKGRHGYDNGDWIRLHRHQWIPTDGQVVDAWKKLFEGIGYANNFLTDTENIDFEALQVPMSKAQAQAEMRVYRAYCYWYVMDMFGTAPICEKIGEINPSSKSRAELFAWIEKELNESIPSLSESKTETYGRVSKWGAYALLARLYLNAEIYTGQARWDDCIAACDELAKGGFALDKKWNDTFRADNDKRSTEIIWSIVYDEVYAKGMGWYQRWLHYAHQTGWDLQSGPWNGLVTQPTFYDSFADNDLRKIEGFLIGKQYPRKVDENGNYYYDTTAEPLKGSEEYNGQDLVFVNYIKSMTEGEENSGARSIKYEIQPGTTGDMNNDWVMFRYSEVIYNKAEALMRKNGGKATQEVVDMINSVRQRSFKAEDWEKAKYTTATLTMDEFLAEKGREFAFEGIRRTDLVRFNKFVTTSWWDKTASNEPKRNIFPIPQRQLDANANLSPNEANSLF,glycan array binding signal (z-score),[1],0.188
same,glycan array binding signal (z-score),[2],-0.7
same,glycan array binding signal (z-score),[3],0.378
same,glycan array binding signal (z-score),[4],0.081
same,glycan array binding signal (z-score),[5],0.02
same,glycan array binding signal (z-score),[6],-0.581
same,glycan array binding signal (z-score),[7],-0.942
same,glycan array binding signal (z-score),[8],0.442
same,glycan array binding signal (z-score),[9],-0.298
same,glycan array binding signal (z-score),[10],-0.559
same,glycan array binding signal (z-score),[11],0.533
same,glycan array binding signal (z-score),[12],-0.694
same,glycan array binding signal (z-score),[13],-0.388
same,glycan array binding signal (z-score),[14],0.152
same,glycan array binding signal (z-score),[15],-0.74
same,glycan array binding signal (z-score),[16],-0.616
same,glycan array binding signal (z-score),[17],0.25
same,glycan array binding signal (z-score),[18],0.181
same,glycan array binding signal (z-score),[19],0.172
same,glycan array binding signal (z-score),[20],-0.633
same,glycan array binding signal (z-score),[21],0.344
same,glycan array binding signal (z-score),[22],-0.169
same,glycan array binding signal (z-score),[23],-0.409
same,glycan array binding signal (z-score),[24],-0.114
same,glycan array binding signal (z-score),[25],0.216
same,glycan array binding signal (z-score),[26],0.029
same,glycan array binding signal (z-score),[27],-0.732
same,glycan array binding signal (z-score),[28],-0.353
same,glycan array binding signal (z-score),[29],0.152
same,glycan array binding signal (z-score),[30],-0.243
same,glycan array binding signal (z-score),[31],-0.287
same,glycan array binding signal (z-score),[32],-0.429
same,glycan array binding signal (z-score),[33],-0.748
same,glycan array binding signal (z-score),[34],-0.351
same,glycan array binding signal (z-score),[35],0.105
same,glycan array binding signal (z-score),[36],0.478
same,glycan array binding signal (z-score),[37],-0.453
